In all, about 52,000 compounds went through this assay and about 4,300 (8.3%) were called active. Rule as the data show it: active = survival mostly below about 52% (no sharp cut-off); inactive = mostly above about 56%. Some of the results follow.
System: DeltatarO mutant
Experiment: S. aureus survival, RN4220 and DeltatarO strains – OD600, teichoic acid synthesis inhibitors, primary screen (AID 463173)
Conditions: S. aureus RN4220 wild type/DeltatarO growth, OD600, 18 h, stronger effect = lower value, screened at 18.75 µg/mL (by protocol)

| SMILES | survival |
| --- | --- |
| CCOC(=O)c1noc2ncn(CC(=O)Nc3cccc(C(F)(F)F)c3)c(=O)c12 | inactive: 81% |
| Cc1cccc(NC(=O)CCn2cnc3ccccc3c2=O)c1 | inactive: 118% |
| CCOc1ccc(NC(=O)N2CCN(c3nnc(C)c4c(C)n(-c5ccccc5)nc34)CC2)cc1 | inactive: 119% |
| CCOC(=O)C1(CC)C(=O)OC(C(=O)NC2CCCCC2)C1C (stereo unspecified) | inactive: 89% |
| COc1ccc(-c2nnc(SCC(=O)NCCC(C)C)nc2-c2ccc(OC)c(OC)c2)cc1OC | inactive: 79% |
| Cc1ccc(CNCc2ccccc2Cl)s1 | inactive: 73% |
| CCc1cccc(C)c1NC(=O)Cn1nc(C)n2cccc2c1=O | inactive: 92% |
| COC(=O)c1cc2oc(C)cc2n1CC(=O)Nc1ccc(C(C)C)cc1 | inactive: 66% |
| CCCCNC(=O)c1ccc2c(=O)n(Cc3ccc(OC)cc3)c(=O)[nH]c2c1 | inactive: 68% |
| CCOC(=O)Cn1c(=O)n(CC2CCCO2)c2nc(-c3ccccc3)nc(C(N)=O)c21 (stereo unspecified) | inactive: 84% |
| COc1ccc(C(=O)Nc2ccc(N(C)Cc3ccccc3)c(C(=O)O)c2)cc1 | inactive: 94% |
| CCOC(=O)C1=C(CN2CCN(c3ccccc3OC)CC2)NC(=O)NC1c1ccccc1 (stereo unspecified) | inactive: 70% |
| CC(C)NC(=O)N1[C@H](c2cccs2)[C@@H](C)C(=O)[C@@H](C)[C@@H]1c1cccs1 | inactive: 51% |
| O=C(CN1CCCN(Cc2ccccc2F)S1(=O)=O)Nc1ccc(F)c(Cl)c1 | inactive: 68% |
| Cc1cc(C)cc(NC(=O)N2CCC(CN3CCOCC3)CC2)c1 | inactive: 80% |
| Cc1nn(C)cc1CN(C)C(=O)c1cc(-c2ccccc2)nc2ccc(Br)cc12 | inactive: 67% |
| COc1ccc(OCC(=O)N2CCc3ccccc3C2)cc1 | inactive: 80% |
| O=C(Nc1cccc(C(F)(F)F)c1)c1cnn(-c2cccc(F)c2)c1C1CCNCC1 | inactive: 81% |
| Cc1ccc(NC(=O)CCS(=O)(=O)c2ccc(Br)s2)c(Br)c1 | inactive: 60% |
| CCOc1ccc(CCNC(=O)c2oc(=O)c3ccccc3c2-c2ccc(C)cc2)cc1OCC | inactive: 70% |
| CC(C)(C)c1ccc(C(=O)NCCc2csc(-c3ccc(Cl)cc3)n2)cc1 | inactive: 78% |
| CC1=C(C(=O)NCc2cccc(F)c2)C2(CCCCC2)OC1=O | active: 37% |
| CC1Cc2ccccc2N1C(=O)CSc1nc2ccc(NC(=O)COc3ccccc3)cc2s1 (stereo unspecified) | inactive: 75% |

| SMILES | survival |
| --- | --- |
| N#Cc1c(C(F)(F)F)cc(-c2cccs2)nc1SCc1ccc(F)cc1 | inactive: 125% |
| CCOC(=O)C(C)Sc1ccc2nnc(CCNS(=O)(=O)c3ccc(C)cc3)n2n1 (stereo unspecified) | inactive: 88% |
| Cc1ccccc1CSc1cn(CC(=O)N2CCCCC2)c2ccccc12 | active: 71% |
| CCOC(=O)c1c(C)oc2nc(C)nc(NCC3CCN(Cc4ccc(C)cc4)CC3)c12 | inactive: 91% |
| CCCCN(CCCC)CCCNC(=O)Cn1cc2c(n1)-c1c(oc(C(=O)N3CCCC3)c1C)CC2 | inactive: 89% |
| O=C(NCc1ccco1)C1CC(c2ccccc2O)=NO1 (stereo unspecified) | inactive: 87% |
| CCOC(=O)c1ccc(N2C(=O)c3[nH]nc(-c4ccc(C)cc4)c3C2c2cccs2)cc1 (stereo unspecified) | inactive: 80% |
| CC(C)C(c1nnnn1Cc1ccccc1)N1CCN(c2ccccc2)CC1 (stereo unspecified) | inactive: 87% |
| CCCc1nc2nc(C)c(NS(=O)(=O)c3ccc(CC(C)C)cc3)c(=O)n2[nH]1 | inactive: 79% |
| CCOC(=O)c1c(C)[nH]c(C)c1S(=O)(=O)N1CCC(C(=O)Nc2ccc(OCC)cc2)CC1 | active: -1% |
| CCCCn1cc(S(=O)(=O)c2cc(C)ccc2C)c(=O)c2cc(F)c(N3CCC(C)CC3)cc21 | inactive: 89% |
| CC(C)OCCCNc1ncnc2sc3c(c12)CCCC3 | active: 42% |
| Cc1ccc(C)c(Cn2c(=O)n(CCCCC(=O)NCc3ccc4c(c3)OCO4)c(=O)c3ccccc32)c1 | inactive: 88% |
| CCCC(=O)Nc1cc2nn(-c3ccccc3)nc2cc1C | inactive: 62% |
| CCc1ccccc1NC(=O)Nc1c(C)n(C)n(-c2ccccc2)c1=O | inactive: 88% |
| CCc1cccc(NC(=O)CN(c2ccc(C)c(C)c2)S(=O)(=O)c2ccsc2C(=O)OC)c1 | active: -5% |
| COc1ccc(C(=O)NCC(c2ccco2)S(=O)(=O)c2ccc(F)cc2)cc1 (stereo unspecified) | inactive: 68% |
| Cc1cc(NC(=O)CCn2c(=O)c3cccn3c3cccnc32)ccc1Br | inactive: 102% |
| O=C(NCc1ccc2c(c1)OCO2)c1cccc(C(=O)NCc2ccc3c(c2)OCO3)c1 | inactive: 70% |
| CCCN1CCN(c2nnc(-n3cccc3C(=O)Nc3cc(Cl)ccc3C)s2)CC1 | inactive: 115% |
| CCSc1ncc(Cl)c(C(=O)Nc2nc3ccc(S(C)(=O)=O)cc3s2)n1 | inactive: 91% |
| COc1ccc(-n2c(=O)c3sc4ccccc4c3n(C)c2=O)cc1 | inactive: 94% |
| CC1=C(C)C(=O)N(c2ccccn2)C1=O | inactive: 93% |

| SMILES | survival |
| --- | --- |
| Cc1ccc(NC(=O)C2CCCN(S(=O)(=O)c3cccc4nsnc34)C2)cc1C (stereo unspecified) | inactive: 79% |
| CCCn1c(CCC(=O)Nc2cc(C(=O)OC)cc(C(=O)OC)c2)nc2cccnc21 | inactive: 110% |
| N#C/C(=C/Nc1cccc2ccccc12)c1nc2ccccc2o1 | inactive: 54% |
| CCCCOc1ccc(Cn2c(=O)sc3ccccc32)cc1OC | active: -3% |
| CCCn1c(CCC(=O)Nc2cc(OC)cc(OC)c2)nc2cccnc21 | inactive: 78% |
| COC(=O)c1scc(-c2ccc(C)cc2)c1S(=O)(=O)Nc1cc(Cl)c(OC)cc1OC | inactive: 102% |
| Cc1ccccc1CCNC(=O)c1ccc2c(c1)nc1n2CCOC1 | inactive: 84% |
| CCCN(CCC)CCCNC(=O)C1CCCN(Cc2nc(-c3ccc(Cl)cc3)oc2C)C1 (stereo unspecified) | inactive: 130% |
| COCCNC(=O)C1CCN(C(=O)c2cc3sccc3n2Cc2ccc(Cl)cc2)CC1 | inactive: 110% |
| COc1ccc(C2(Nc3cccc(F)c3)C(=O)c3ccccc3C2=O)cc1 | inactive: 49% |
| COc1ccccc1NC(=O)CSC1=Nc2ccccc2C2=NC(CCC(=O)NCc3ccco3)C(=O)N12 (stereo unspecified) | inactive: 87% |
| O=c1ccc2cc(S(=O)(=O)Nc3ccc(F)c(Cl)c3)ccc2[nH]1 | inactive: 89% |
| CCOc1ccc2nc(SCC(=O)Nc3ccc(F)cc3)nc(-c3ccccc3)c2c1 | inactive: 108% |
| CCOC(=O)Cc1ccc(NC(=O)N2CCSc3ccccc32)cc1 | inactive: 71% |
| Cc1ccc(-c2nc(CS(=O)CC(=O)NCc3ccccc3Cl)c(C)o2)cc1 (stereo unspecified) | active: 54% |
| CC1=C(C(=O)Nc2ccc(Cl)cc2)C(c2ccccc2F)n2nc(SCc3cccc(Cl)c3)nc2N1 (stereo unspecified) | inactive: 67% |
| Cc1ccc2oc(-c3ccc(NC(=O)C(F)(F)F)cc3)nc2c1 | inactive: 61% |
| COc1ccc(OC)c(NC(=O)C2Cc3ccccc3CN2S(=O)(=O)c2ccc(F)cc2)c1 (stereo unspecified) | inactive: 57% |
| Cc1ccc(Cn2c(=O)n(CCc3ccc(Cl)cc3)c(=O)c3ccccc32)cc1 | active: 42% |
| COc1ccc(-n2nc3cc(C)c(NC(=O)c4ccc5c(c4)OCO5)cc3n2)cc1 | inactive: 88% |
| CCc1ccc(CNC(=O)c2cc3n(n2)CCCN(Cc2ccccc2)C3=O)cc1 | inactive: 97% |
| COc1ccc(NC(=O)Cn2c(=O)n(Cc3ccccc3OC)c(=O)c3cccnc32)cc1Cl | inactive: 74% |
| Cc1ccc(-n2ncc3c(NC(C)c4ccccc4)ncnc32)cc1 (stereo unspecified) | inactive: 94% |

| SMILES | survival |
| --- | --- |
| COc1cccc(CNC(=O)Cc2c(C)c3c(cc(C)c4c(C)c(C)oc43)oc2=O)c1 | inactive: 89% |
| O=S(=O)(c1ccc(Cl)cc1)c1nc(-c2cccs2)oc1SCc1ccc(F)cc1 | inactive: 67% |
| Cn1nnc2c(NCc3ccc(Cl)cc3)ncnc21 | inactive: 81% |
| COc1ccc(C2=C(C)C(N3CCC(C(=O)Nc4ccccc4F)CC3)=NS2(=O)=O)cc1 | inactive: 90% |
| Cc1c(C)n(Cc2ccc(F)cc2)c2ccc(C(=O)N3CCN(c4ccc(F)cc4)CC3)cc12 | inactive: 83% |
| CCC(C(=O)NCCc1ccccc1)n1nc(C)c2sc3ccccc3c2c1=O (stereo unspecified) | inactive: 71% |
| CN1CCc2c(sc(N)c2C(=O)O)C1 | inactive: 80% |
| O=C(O)CC1OC(=O)c2ccccc21 (stereo unspecified) | inactive: 55% |
| O=C(C1CCN(c2ncnc3c2nc2n3CCCCC2)CC1)N1CCN(c2ccccc2F)CC1 | inactive: 86% |
| O=C(COc1ccc(F)cc1)NCCCn1ccnc1 | inactive: 96% |
| CCSc1ncc(Cl)c(C(=O)Nc2nnc(CC)s2)n1 | inactive: 72% |
| O=C(c1ccccc1F)N1c2ncnn2C2(CCCCC2)[C@@H]2CCCC[C@@H]21 | inactive: 109% |
| Cc1cccc(Nc2nc(N)nc(N)c2S(=O)(=O)c2ccccc2)c1 | inactive: 68% |
| CC1CCc2c(cc(-c3ccccc3)n2-c2ccc(C(=O)NC(C)C)cc2)C1 (stereo unspecified) | inactive: 96% |
| CCOc1ccccc1NC(=O)C1CCN(S(=O)(=O)c2ccc3[nH]c(=O)oc3c2)CC1 | inactive: 89% |
| CCc1cccc(OCC(=O)Nc2ccc(S(=O)(=O)Nc3ncccn3)cc2)c1 | active: 43% |
| CC(C)(C)c1ccc(OCc2nc3ccccc3n2CCOc2ccccc2)cc1 | active: 10% |
| Cc1cccc(C)c1OCc1nc2c3cnn(-c4ccccc4F)c3ncn2n1 | inactive: 109% |
| COc1cccc(NC(=O)CSc2nc3c([nH]c4ccccc43)c(=O)n2-c2cc(C)cc(C)c2)c1 | inactive: 89% |
| Cc1cc(C)cc(NC(=O)Cc2csc(C)n2)c1 | active: 39% |
| COc1ccc(CNC(=O)c2cc3c(=O)n(Cc4cccnc4)ccc3nc2C)cc1 | active: 37% |
| COc1ccccc1CNC(=O)c1cc2c(=O)oc3ccc(C)cc3c2s1 | inactive: 65% |

— PubChem BioAssay AID463173 (ICCB-Longwood Screening Facility, Harvard Medical School, 2010)
